Measured values reported in PubChem BioAssay AID1159614 (National Center for Advancing Translational Sciences (NCATS), 2016).
Out of some 45,000 compounds screened, about 65 (0.1%) were called active. Calls follow the shape of the dose curve; as a rule, active = well fitted activation curve with a large enough effect; inconclusive = small, poorly fitted or top-dose-only effect; inactive = no such curve, though single readings can be large or run the other way. This is one part of the list.

target: Galactocerebrosidase (Homo sapiens) (UniProt P54803); assay: A Novel Cell-Based Assay to Identify Small Molecules for B -Galactocerebrosidase; conditions: 145M-Twi-hGALC-G270D cells (Twitcher mouse brain line with human GALC G270D), HMU-beta-Gal fluorescence, 48 h; series mostly up to 57.5 µM; activation: at the top concentration; also: 0% is about no effect; nearly all actives have a fitted effect of over 65% in size
UniProt P54803, sequence (P54803 whole entry, looked up): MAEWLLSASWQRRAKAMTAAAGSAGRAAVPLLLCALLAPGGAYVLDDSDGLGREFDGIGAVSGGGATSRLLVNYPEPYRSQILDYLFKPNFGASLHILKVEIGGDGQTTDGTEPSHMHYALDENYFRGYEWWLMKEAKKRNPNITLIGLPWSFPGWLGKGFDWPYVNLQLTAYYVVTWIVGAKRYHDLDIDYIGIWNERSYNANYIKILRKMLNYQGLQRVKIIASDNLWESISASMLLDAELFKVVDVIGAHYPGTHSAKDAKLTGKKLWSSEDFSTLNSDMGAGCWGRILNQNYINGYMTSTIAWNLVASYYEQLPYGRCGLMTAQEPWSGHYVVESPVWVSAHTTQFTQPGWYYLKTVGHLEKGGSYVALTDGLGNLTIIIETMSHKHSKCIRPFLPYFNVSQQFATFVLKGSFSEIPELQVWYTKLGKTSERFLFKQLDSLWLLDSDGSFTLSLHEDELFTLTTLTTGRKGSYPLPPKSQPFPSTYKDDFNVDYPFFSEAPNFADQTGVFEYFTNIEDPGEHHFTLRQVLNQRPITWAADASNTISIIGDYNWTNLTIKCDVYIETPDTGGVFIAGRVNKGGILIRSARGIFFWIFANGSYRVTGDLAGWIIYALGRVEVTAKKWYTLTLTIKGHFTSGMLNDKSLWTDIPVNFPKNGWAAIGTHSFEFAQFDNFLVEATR
In short: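 Fluorogenic HMU-b-Gal hydrolysis (0.1 mM final, pH 5.2 citrate-phosphate with 1 mg/mL sodium taurocholate; carbonate stop buffer) measures mutant GALC activity after compound treatment of live 145M-Twi Twitcher brain cells stably carrying human GALC-G270D, with wild-type GALC line alongside; activation sought.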

activation, inactive:
CSc1cccc(N2C(=O)N(Cc3ccc([N+](=O)[O-])cc3)c3ccccc3S2(=O)=O)c1 3.27%
COCCNC(=O)c1cc2n(n1)CCCN(Cc1ccc(C)cc1)C2=O -18%
CC(=O)Cn1nnc2sc(-c3ccccc3)cc2c1=O -3.95%
Cc1c(Cl)cccc1Nc1sc(C(=O)c2ccccc2)c(N)c1S(=O)(=O)c1ccccc1 -12.5%
COc1ccc(NC(=O)CC2C(=O)N(c3ccc(C)cc3)C(=O)N2CCc2ccccc2)cc1 (configuration not stated) -7.54%
COc1ccc(CC(=O)Nc2c(C(=O)Nc3ccccc3F)oc3ccccc23)cc1 -12.5%
Cc1ccccc1NC(=O)c1sc2nc(-c3ccncc3)ccc2c1N -16.7%
O=C(O)c1[nH]n(-c2ccc(S(=O)(=O)O)cc2)c(=O)c1N=Nc1ccc(S(=O)(=O)O)cc1 -16.6%
Brc1ccc(-c2cc3c(N4CCN(c5ccccc5)CC4)nccn3n2)cc1 0.761%
COCCCNC(=O)CCCn1c(=O)c2cccn2c2cccnc21 -20.2%
Cc1nc(C)c(-c2ccc(SCC(=O)Nc3ccccc3F)nn2)s1 -8.44%
Cc1cc2ccccc2n1-c1ccc(C(=O)N2CCCCC2)s1 -12.1%
COc1cccc(CNC(=O)CCNS(=O)(=O)c2cccc3nsnc23)c1 2.7%
CCOC(=O)c1ccc(N2C(=O)c3n[nH]c(-c4cccs4)c3C2c2ccc(C)cc2)cc1 (configuration not stated) -9.02%
CCCN(CCC)CCCNC(=O)Cn1ncc2c3ccccc3n(Cc3ccc(F)cc3)c2c1=O -16.4%
CCCCOc1cccc(C(=O)Nc2cc3nn(-c4ccc(F)cc4)nc3cc2C)c1 -26.1%
CCOC(=O)c1[nH]c2ccccc2c1NC(=O)c1ccc(OC(C)C)cc1 -18.7%
COc1cc(OC)cc(C(=O)Nc2ccc(S(=O)(=O)Nc3cc(C)nc(C)n3)cc2)c1 -11.8%
CCn1cc(S(=O)(=O)c2ccccc2)c(=O)c2cc(C)ccc21 -10.7%
O=C(CSc1nccn1-c1ccc(Cl)cc1)Nc1nc2ccccc2s1 -11.3%
COc1cc(NC(=O)c2cc3c(=O)oc4ccc(C)cc4c3s2)cc(OC)c1OC -22%
CC(C)(CC(=O)OCC(=O)Nc1ccc(F)c(Cl)c1)CC1=NS(=O)(=O)c2ccccc2N1 2.11%
CCCCn1c(COc2cccc(OC)c2)nc2ccccc21 -18%
COc1ccc(CCN2CC(C(=O)NCCc3ccc(C)cc3)CC2=O)cc1OC (configuration not stated) 5.64%
CCN(C(=O)Cn1ncc2c1-c1cc(C)ccc1OC2)c1cc(Cl)ccc1OC -3.44%
CCc1ccccc1NC(=O)CSc1ncc2c(n1)-c1ccccc1N(Cc1ccc(C)cc1)S2(=O)=O -12%
Cc1nc(-c2ccccc2)sc1CCNC(=O)c1ccco1 -10.8%
COc1cccc(CNC(=O)CCc2c(C)c3cc4c(C)c(C)oc4cc3oc2=O)c1 -9.66%
CCOC(=O)c1ccccc1NS(=O)(=O)c1c(-c2ccc(C)cc2)csc1C(=O)OC -1.06%
CCN(Cc1ccccc1)C(=O)CCNS(=O)(=O)c1ccc2c(c1)CC(C)N2C(C)=O (configuration not stated) -12.4%
COc1ccccc1CNS(=O)(=O)c1c(C)nc2sccn2c1=O -6.58%
Cc1ccc(S(=O)(=O)c2cn(Cc3ccccc3)c3cc(N4CCCC4)c(F)cc3c2=O)cc1C -14.2%
O=C(OCc1ccccc1Cl)c1ccc(-c2nnn(Cc3ccccc3)n2)cc1 -4.9%
CC(C)Oc1ccc(CNC(=O)c2ccc(NC(=O)c3nsc4ccccc34)cc2)cc1 -10.3%
CC(C)(C)C(=O)Nc1ccc2nc(SCC(=O)N3CCCC3)sc2c1 -9.99%
O=C(Nc1ccc(NC(=O)c2cccs2)cc1)c1ccc(Br)cc1 -5.16%
Cc1ccc(C)c(NC(=O)C(=O)NCCc2csc(-c3ccc(C(F)(F)F)cc3)n2)c1 -8.92%
NCC1CCC(C(=O)Oc2ccc(CCC(=O)O)cc2)CC1 (configuration not stated) -18%
CCN(CCCNC(=O)c1cc2cc3cc(C)ccc3nc2s1)c1cccc(C)c1 -3.29%
COc1ccc(/C=C(/C#N)c2nc(-c3ccc(-c4ccccc4)cc3)cs2)cc1 7.8%
CCOC(=O)Cn1c(=O)cc(-c2ccccc2)c2c(C)nn(C)c21 -15.8%
CCC(C)NC(=O)Cn1c(=O)n(-c2ccc(C)cc2)c(=O)c2ccccc21 (configuration not stated) -2.68%
Cc1nc(-c2ccccc2)sc1-c1ccc(SCC(=O)Nc2ccc(F)cc2F)nn1 -8.17%
Cc1oc2ncnc(N3CCCCC3)c2c1C(=O)NCC1CCN(Cc2ccc(F)cc2)CC1 -13.2%
CCN(CC)CCOc1ccc(/C(=C(\Cl)c2ccccc2)c2ccccc2)cc1 -19.2%
CCc1ccccc1N(CC)C(=O)c1cc2c(s1)-c1ccccc1OC2 -10.3%
COc1ccc(OC)c(CCNC(=O)c2ccc(CS(=O)Cc3cccc(Cl)c3)o2)c1 (configuration not stated) -9.51%
Cc1ccccc1CSc1nc2nc(C)c(Cc3ccccc3)c(C)n2n1 -12.7%
CCc1ccc(-n2nc(CO)c(C(=O)NCc3ccccn3)n2)cc1 -7.22%
CCCCNc1nc(Oc2ccc(=O)n(-c3ccccc3)n2)nc(N(C)C)n1 2.16%
COc1ccc(-n2ncc(C(=O)N3CCN(c4ccccn4)CC3)c2C2CCN(C(=O)OC(C)(C)C)CC2)cc1 -7.84%
CCC(CC)c1nn2c(=O)cc(COc3ccc(NC(=O)c4ccc(Cl)cc4)cc3)nc2s1 3.86%
COCCNc1nc(NCc2ccccc2OC)c2cnn(C)c2n1 -9.88%
CC(Sc1oc(-c2ccco2)nc1S(=O)(=O)c1ccc(Br)cc1)c1ccccc1 (configuration not stated) -2.03%
COc1ccc(N2CCN(c3nc(-c4ccccc4F)nc4ccccc34)CC2)cc1 -14.3%
O=C(CN(c1cccc(Br)c1)S(=O)(=O)c1ccccc1)N1CCc2ccccc2C1 -28%
COc1ccc(N2CCN(CCCNC(=O)c3cnn(-c4ccc(F)cc4)c3-n3cccc3)CC2)cc1 -25%
CCOC(=O)c1cn(CC(=O)Nc2cccc(Cl)c2C)nn1 -18.7%
Nc1nc(-c2ccccc2)c(Br)c(=O)[nH]1 -12.6%
COCCNC(=O)c1c(NC(=O)Cc2coc3cc(C)ccc23)sc2c1CCCC2 13.5%
CCC(C)NC(=O)c1ccc2c(c1)N(Cc1cccc(Cl)c1)C(=O)c1ccccc1S2=O (configuration not stated) -16.7%
CCOc1ccccc1NC(=O)C(NS(=O)(=O)c1cccc2nsnc12)c1ccccc1 (configuration not stated) -8.26%
Cc1nnc(N2CCN(c3ccccc3F)CC2)c2c1nnn2Cc1ccc(F)cc1 -3.06%
CN(C(=O)c1nn(C)c2c1COc1ccccc1-2)c1cccc(C(F)(F)F)c1 -1.33%
CN(Cc1ccccc1)S(=O)(=O)c1ccc(F)c(C(=O)Nc2cccc(Cl)c2Cl)c1 -4.72%
Cc1ccc(C(C)(C)C)c(OCC(=O)NCCc2nc3ccccc3[nH]2)c1 -8.07%
Cc1ccccc1NS(=O)(=O)c1ccc(Br)s1 -2.84%
COc1ccc(-c2nc3sc(CCNC(=O)c4cc(Cl)ccc4OC)c(C)n3n2)cc1 -9.84%
CCOc1ccccc1-n1nnc(-c2nc(-c3ccccc3)no2)c1N -13.3%
Cc1cccc(CC2C(=O)Nc3ccccc32)c1 (configuration not stated) -16.6%
CCOc1ccc(C2=NC(c3cccs3)=Nc3ccc(C(C)C)cc3N2)cc1 -11.5%
CCOC(=O)c1c(NC(=O)c2ccc(S(=O)(=O)N(CCOC)CCOC)cc2)sc2c1CC(C)(C)NC2(C)C -14.1%
Cc1c(/C=C(\C#N)C(=O)Nc2cccc(Cl)c2)c2ccccc2n1Cc1ccccc1Cl -12%
CCN(CC)c1cc2c(cc1F)c(=O)c(S(=O)(=O)c1cc(C)ccc1C)cn2Cc1ccccc1 -7.62%
CCOc1ccc(C2c3cc(OCC)c(OCC)cc3CC(=O)N2c2ccc(C(=O)O)cc2)cc1OCC (configuration not stated) -5.41%
CCc1ccc(C(=O)COC(=O)C(Cc2c[nH]c3ccccc23)NC(=O)c2ccc(Br)cc2)cc1 (configuration not stated) -10.6%
COc1ccccc1N1CCN(c2ncnc3c2cnn3C)CC1 -13.5%
COc1ccc(S(=O)(=O)N(CCc2ccccc2)CC(=O)Nc2cccc(OC)c2)cc1 -10.3%
CCOC(=O)c1cccc(NC(=O)C2CCN(S(=O)(=O)c3ccc4c(c3)oc(=O)n4C)CC2)c1 -16.5%
COc1ccc(CCN2C(=O)c3oc4ccc(F)cc4c(=O)c3C2c2ccc(C(C)(C)C)cc2)cc1 (configuration not stated) -12.1%
Cc1nc2ccc(S(=O)(=O)N(C)CC(=O)Nc3ccc(Br)c(C)c3)cc2s1 -7.09%
CCOc1ccc(C2CC(=O)c3c([nH]c(C(=O)OCc4ccccc4)c3C)C2)cc1 (configuration not stated) -19.8%
CCc1cccc(C)c1NC(=O)Cn1ccn(-c2ccc(F)cc2)c(=O)c1=O -12.4%
Cc1ccc(Cn2nnc(C(=O)Nc3ccc(F)c(F)c3)c2N)cc1 -16.3%
COc1ccc(S(=O)(=O)N2CCC(n3c(C(F)(F)F)nc4cccnc43)CC2)cc1OC -0.206%
Cc1ccccc1-c1nn2c(=O)cc(CN3CCN(C(=O)c4ccc(C(C)(C)C)cc4)CC3)nc2s1 1.37%
O=C(CSc1nc(-c2ccccc2)no1)N1CCCCC1 -6.87%
CCOC(=O)N1CCc2c(sc3c2c(=O)n(CCc2ccccc2)c(=O)n3Cc2ccc(F)cc2)C1 -13.8%
COc1ccc(C(=O)CN2C(=O)N(c3ccc(C(C)=O)cc3)S(=O)(=O)c3ccccc32)cc1 11.3%
COc1ccc(NC(=O)c2cn(-c3ccccc3)nc2-c2ccc(C)cc2)cc1 -4.79%
COC(=O)c1ccc(NC(=O)CN2CCN(c3ccc(Cl)cc3)CC2)cc1 -4.73%
O=C1CC(c2ccccc2)Cc2[nH]c(=O)c(C(=O)Nc3cccc(Cl)c3)cc21 (configuration not stated) -11.4%
CCOc1ccccc1-n1cc2c(c1-c1ccc(OC)cc1)c(=O)n(C)c(=O)n2C -14%
Cc1ccc(N(C)C(=O)C2CCN(S(=O)(=O)c3ccc4c(c3)CCCN4C(=O)C3CCC3)CC2)cc1 13.6%
CCCOC(=O)CSc1nnc2ccc3ccccc3n12 -19.9%
O=C(CSc1nc2ccccc2nc1Cc1ccccc1)Nc1ccc2c(c1)OCO2 -6.63%

Potency, inactive:
NC(=O)N/N=C/c1ccc([N+](=O)[O-])o1
